# Laboratory results: article PMC4336329 (PLoS ONE, 2015)
# Hit rate of the full screen: of about 310,000 compounds, about 14,000 (4.5%) showed an effect of 50% or more. The effect is printed as a negative number. The list shows a part of the results.
# Biological target: human ether-à-go-go-related gene (hERG) potassium channel (human, UniProt Q12809)
# Assay: primary screen, population patch clamp on CHO cells stably expressing hERG
# 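Further: peak tail current of the secondary pulse compared with the same well before compound.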
# Sequence of human ether-à-go-go-related gene (hERG) potassium channel (Q12809 whole entry, looked up): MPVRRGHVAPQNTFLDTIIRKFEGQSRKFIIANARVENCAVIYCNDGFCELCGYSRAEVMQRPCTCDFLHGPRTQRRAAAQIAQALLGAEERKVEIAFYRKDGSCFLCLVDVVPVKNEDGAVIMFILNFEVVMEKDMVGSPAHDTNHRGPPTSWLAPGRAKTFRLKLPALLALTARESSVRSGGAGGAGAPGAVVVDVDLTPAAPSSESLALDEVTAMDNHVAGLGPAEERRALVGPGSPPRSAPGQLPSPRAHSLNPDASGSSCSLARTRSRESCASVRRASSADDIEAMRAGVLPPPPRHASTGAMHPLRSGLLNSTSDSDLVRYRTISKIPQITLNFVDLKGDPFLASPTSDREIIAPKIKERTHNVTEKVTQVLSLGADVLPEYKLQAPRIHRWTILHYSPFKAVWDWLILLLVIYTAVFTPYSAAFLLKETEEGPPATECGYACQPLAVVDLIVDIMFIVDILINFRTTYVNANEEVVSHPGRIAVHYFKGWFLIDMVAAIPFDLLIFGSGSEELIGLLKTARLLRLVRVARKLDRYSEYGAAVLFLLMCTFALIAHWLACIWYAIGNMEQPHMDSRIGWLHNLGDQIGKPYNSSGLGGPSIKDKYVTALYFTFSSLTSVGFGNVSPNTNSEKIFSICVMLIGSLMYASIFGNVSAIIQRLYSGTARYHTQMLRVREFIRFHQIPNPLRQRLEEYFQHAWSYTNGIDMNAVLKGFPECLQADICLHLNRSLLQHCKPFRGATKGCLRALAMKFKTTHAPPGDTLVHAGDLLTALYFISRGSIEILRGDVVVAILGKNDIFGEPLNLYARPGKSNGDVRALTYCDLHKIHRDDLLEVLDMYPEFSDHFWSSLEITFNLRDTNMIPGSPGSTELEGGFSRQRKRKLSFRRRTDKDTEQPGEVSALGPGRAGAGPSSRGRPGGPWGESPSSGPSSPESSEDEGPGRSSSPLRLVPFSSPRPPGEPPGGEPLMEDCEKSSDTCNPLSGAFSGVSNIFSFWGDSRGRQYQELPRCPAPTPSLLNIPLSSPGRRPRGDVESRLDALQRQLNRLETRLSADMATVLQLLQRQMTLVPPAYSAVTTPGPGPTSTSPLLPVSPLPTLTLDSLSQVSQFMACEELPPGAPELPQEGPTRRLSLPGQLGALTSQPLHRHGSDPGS
row,Structure (SMILES),"hERG current change (%, negative = inhibition) at 10uM [%]"
1,CCC(C(=O)Nc1nccs1)c1ccccc1 (stereo not shown),9.98
2,Cc1ccc[n+](CC(O)Cn2c3ccccc3c3ccccc32)c1.[O-][Cl+3]([O-])([O-])[O-] (stereo not shown),9.51
3,S=C(NCCc1ccccn1)NC1CC2CCC1C2 (stereo not shown),16
4,COc1cc2[nH]c(=O)n(Cc3ccc(C(=O)NCCCN4CCC(C)CC4)cc3)c(=O)c2cc1OC,5.9
5,O=C(Cn1c(C(=O)OCCO)cc2ccccc21)c1ccccc1,10.3
6,CCOc1cc(C2C3=C(CC(C)(C)CC3=O)N(CCOC)C3=C2C(=O)CC(C)(C)C3)ccc1OC,-11.4
7,Cc1cc(C)cc(N(CC(=O)NC(C)(C)C)C(=O)CCC(=O)Nc2ccccn2)c1,5.32
8,COc1ccccc1S(=O)(=O)Cc1ccc(C(=O)NCc2cccs2)o1,-36.1
9,Cc1cccc(NC(=O)COC(=O)CCc2c[nH]c3ccccc23)c1C,-6.32
10,COc1ccc(-n2cnnc2SCC(=O)Nc2ccc(C(N)=O)cc2)cc1,9.51
11,CN(C)CCCNC(=O)c1ccc(Cl)c(S(=O)(=O)N2CCCCCC2)c1.Cl,-72.4
12,Cn1c(CC(=O)c2ccc(Br)cc2)[n+](C)c2ccccc21.[Cl-],3.46
13,O=C(Cc1cc(=O)[nH][nH]1)N/N=C/c1ccccc1Cl,-10.3
14,COc1cc2c3c(c1OC)-c1cc(O)ccc1CC3NCC2.Cl (stereo not shown),-31.5
15,CCOc1ccc(NC(=O)CSc2nnc(CNC(=O)c3ccco3)o2)cc1,-10.2
16,CC(=O)NC1C(OCc2ccccc2)OC2COC(c3ccccc3)OC2C1OCC(=O)O (stereo not shown),27.6
17,COc1ccccc1CNc1nc2nc(C)c(C)c(=O)n2[nH]1,-13.5
18,COc1ccccc1C(=O)NC(=O)COC(=O)C1CCC1,-1.72
19,CCOC(=O)c1c(NC(=O)c2noc(C)c2[N+](=O)[O-])sc(C(C)=O)c1C,2.8
20,Cc1ccc(C(=O)c2nc(C(=O)NCCO)nc3ccccc23)cc1,25.8
21,COCCCNC(=O)C1CCCCN1S(=O)(=O)c1ccc(F)cc1 (stereo not shown),9.08
22,Cc1cc(=O)n2nc(N3CCC(C(=O)NCCc4ccc(Cl)cc4)CC3)sc2n1,-54.5

row,Structure (SMILES),"hERG current change (%, negative = inhibition) at 10uM [%]"
1,N#CCCn1c(C(C#N)(CCC#N)CCC#N)nc2ccccc21,8.84
2,CN1CCN(c2ccccc2NC(=O)c2c(F)cccc2F)CC1,-19.9
3,COCCn1cnc2c1c(=O)n(CC(=O)NCC(F)(F)F)c(=O)n2Cc1ccccc1,11.9
4,Cc1nc(SCC(=O)Nc2cc(C)on2)c2c(=O)n(C)c(=O)n(C)c2n1,-0.204
5,CC1Cc2ccccc2N1S(=O)(=O)c1cccc2nsnc12 (stereo not shown),-7.34
6,O=[N+]([O-])c1cc(S(=O)(=O)NCCN2CCOCC2)ccc1Cl,9.13
7,Cc1ccc(C)c2nc(Cl)c(C#N)cc12,24.6
8,COc1ccc(NS(=O)(=O)c2ccc(C)c(C(=O)NNC(=O)c3csc(N4CCOCC4)n3)c2)cc1,-11.3
9,Cc1ccc(C(=O)Nc2ccc3c(c2)C(=O)NC3=O)cc1,22.4
10,CC(C)C[C@H](NC(=O)N1CCn2c1nc1ccccc12)C(=O)NCC1CCCO1 (stereo partly shown),15.6
11,COc1ccc(/C=C/C(=O)Nc2sc3c(c2C(=O)NCc2cccnc2)CCCC3)cc1,-2.49
12,Cn1c(CC(=O)Nc2ccc(F)cc2)c(Sc2ccccc2)c2ccccc21,8.87
13,COc1ccc(NC(=O)Nc2cccc(OC)c2)cc1,-0.126
14,O=C(COc1ccccc1)NCCSCc1ccc(Cl)cc1,-12.6
15,COC(=O)c1ccc(CN(C(C)=O)c2ccccc2)o1,7.25
16,Cc1ccc(/C=N/n2c(COc3ccccc3)n[nH]c2=S)s1,14.6
17,COc1ccc(C)cc1Nc1n[n+](-c2ccccc2)c(-c2c(Cl)cccc2Cl)s1.[Cl-],-55.9
18,CCOC(=O)c1ccc(CC2S/C(=C(\C#N)C(C)=O)NC2=O)cc1 (stereo not shown),4.34
19,CCOC(=O)C(Cc1ccccc1)NC(=O)CCc1nnc2ccc(N3CCCCC3)nn12 (stereo not shown),-12.2
20,Cc1ccc(C(C(=O)NCCc2ccccc2)N(C(=O)c2csnn2)C2CC2)cc1 (stereo not shown),-16.1
21,COc1ccccc1-c1ccc(=O)n(CC(=O)NCC2CCCO2)n1.Cl (stereo not shown),-0.834
22,CCc1cc2c(Nc3ccccc3O)nc(C)nc2s1.Cl,18.8

row,Structure (SMILES),"hERG current change (%, negative = inhibition) at 10uM [%]"
1,O=C(Cc1c(F)c(F)c(F)c(F)c1F)OC12CC3CC(C1)C(=O)C(C3)C2,-11
2,c1ccc2c(c1)NC(CN1CCOCC1)CO2 (stereo not shown),2.98
3,CCCNc1nc2c(c(=O)[nH]c(=O)n2C)n1CCCc1ccccc1,5.73
4,COC(=O)c1ccc(COC(=O)c2ccc(SC)cc2OC)cc1,5.86
5,COc1cc(C2c3c(-c4cc(Cl)c(C)cc4O)n[nH]c3C(=O)N2Cc2cccnc2)ccc1O (stereo not shown),-1.14
6,CC(C)C[C@H](NC(=O)OC(C)(C)C)C(=O)N[C@@H](CO)[C@H](O)[C@@H]1C[C@@H]1C(=O)NC1CC1,15.4
7,CCOc1cc(NC(=O)c2ccco2)c(OCC)cc1NC(=O)Cc1cccc(OC)c1,-5.75
8,Cn1c(=O)[nH]c(=O)c2c1nc(Sc1ncccn1)n2CCCc1ccccc1,-36.5
9,O=C1C(=O)N(Cc2cccnc2)C(c2ccc(Br)cc2)/C1=C(\O)c1ccc2c(c1)OCCO2 (stereo not shown),9.15
10,Cc1ccc(S(=O)(=O)Nc2cc(C)cn(Cc3ccccc3)c2=O)cc1,2.58
11,COc1cccc(NC(=O)CN(C)C(=O)c2ccccc2CCc2ccccc2)c1,13.7
12,O=C(O)Cc1sc(Nc2cccc3ccccc23)nc1-c1ccc(F)cc1,20.3
13,N#CCCn1cc(C(=O)Nc2ccc(C(=O)O)cc2)c(-c2cc3ccccc3o2)n1,10.7
14,Cc1ccc(Oc2nc(C(F)(F)F)nc3ccccc23)cc1,-2.07
15,Cc1cc(C(=O)NNC(=O)CCC2CCCCC2)c(C)o1,16
16,CSc1ccc(C(=S)N2CCN(C(c3ccccc3)c3ccccc3)CC2)cc1,6.62
17,CC(=O)Nc1ccc(NC(=O)C(C)OC(=O)c2cccc(S(=O)(=O)N3CCCCC3)c2)cc1 (stereo not shown),17.4
18,CCOC(=O)CNC(=S)N(Cc1cccs1)C1CCCCC1,-34.7
19,O=[N+]([O-])c1ccc2c(c1)oc1ccccc12,-2.93
20,CC1(C)C2CC=C(/C=N/NC(=O)C(N)=O)C1C2 (stereo not shown),9.46
21,CCOC(=O)C1CCCN(c2c(Nc3cccc(C)c3)c(=O)c2=O)C1 (stereo not shown),-4.9
22,CC(=O)Nc1ccccc1NC(=O)CC(C)(C)C,-3.84

row,Structure (SMILES),"hERG current change (%, negative = inhibition) at 10uM [%]"
1,OCC1(CO)COC(c2cccnc2)N1 (stereo not shown),5.6
2,CCCn1nnnc1NCc1ccc(C(C)C)cc1,4.94
3,O=C(CCCCn1c(=O)[nH]c2ccccc2c1=O)NCc1ccc2c(c1)OCO2,-6.99
4,CSc1ncc(Cl)c(C(=O)Nc2ccc(S(=O)(=O)Nc3nccc(C)n3)cc2)n1,-7.34
5,COc1ccc(N(CC(=O)Nc2ccc3c(c2)OCCO3)S(=O)(=O)c2cccnc2)cc1,-13
6,CC(C)CC(=O)NC(=S)NCc1ccccc1,-3.56
7,CCCNC(=O)CNC(=S)N(Cc1ccccc1F)C1CCCCC1,-10.8
8,NC(=O)Nc1ccc(C(=O)OCC(=O)NCc2ccc3c(c2)OCO3)cc1,11
9,CCOC(=O)C(=O)Nc1ccccc1C(=O)NC(C)C,-0.222
10,Cc1ccc(Sc2ccc(CN3CCCCC3)cc2[N+](=O)[O-])cc1,-27.4
11,O=C(c1cc(F)ccc1F)C1CCCN(C(=O)CSc2ccccn2)C1 (stereo not shown),-31.9
12,CC(=O)NC(Cc1c[nH]c2ccccc12)C(=O)NCc1ccco1 (stereo not shown),12.5
13,Cc1nc(Nc2nc3ccccc3o2)nc2c1CCC2,14.3
14,O=C(O)c1ccc(N2C(=O)c3cccc(Oc4ccc(Cl)cc4)c3C2=O)cc1,-80.7
15,CC(=O)C1C(=O)CC(c2ccc(Cl)cc2)CC1=O (stereo not shown),3.96
16,CC(=O)c1cccc(NC(=O)COC(=O)c2ccc(S(C)(=O)=O)c([N+](=O)[O-])c2)c1,27.4
17,COc1ccc2nc(SCC(=O)Nc3ccc4[nH]c(=O)[nH]c4c3)[nH]c2c1,13.6
18,CCc1cccc(C)c1NC(=O)C1CC=CCC1C(=O)O (stereo not shown),13.2
19,COc1ccc(C2Nc3ccccc3C(=O)N2NS(C)(=O)=O)cc1OC (stereo not shown),20.3
20,COc1ccc(S(=O)(=O)N2CCN(c3ccccc3)CC2)cc1,-14.7
21,COC(=O)Nc1ccc(S(=O)(=O)N2CCN(CCN3C(=O)C4C5C=CC(C5)C4C3=O)CC2)cc1 (stereo not shown),-6.26
22,Cn1c(/N=C/c2cc(Cl)ccc2O)nc2ccccc21,5.14
